Test results reported in publication PMC11995724, “Antibiotic target discovery by integrated phenotypic and activity-based profiling of electrophilic fragments” (Cell chemical biology, 2025).
Out of some 3,200 compounds screened, about 110 (3.4%) showed an effect of 50% or more. Some of the results follow.

test system: T1, V. cholerae SAD30; set-up: species or system S. aureus MSSA476 (TSB) or V. cholerae SAD30 (LB); 384-well bacterial growth screen at 25 uM, OD600 relative to DMSO control; details: relative growth, OD600, LB; 25 µM; inhibitor
T1 construct: SAD30

Row | SMILES | % of control remaining
1 | C=CC(=O)N(Cc1cc(F)cc(Cl)c1)C(C)C1CCOCC1 (stereo not shown) [1-F13, N-[(3-chloro-5-fluorophenyl)methyl]-N-[1-(oxan-4-yl)ethyl]prop-2-enamide] | 77.429%
2 | N#CC(=Cc1cccnc1)C(=O)NCc1ccccc1 [9-I14, N-benzyl-2-cyano-3-(pyridin-3-yl)prop-2-enamide] | 83.4126%
3 | Cc1cc(C)c(CCNC(=O)CCl)c(C)c1 [6-K06, 2-chloro-N-[2-(2,4,6-trimethylphenyl)ethyl]acetamide] | 92.824%
4 | CCOc1ccc(C(=O)CCl)cc1 [10-F12, 2-chloro-1-(4-ethoxyphenyl)ethan-1-one] | 15.1179%
5 | Cc1c(C#N)c(NC(=O)CCl)n(Cc2ccc(F)cc2)c1C [4-O21, 2-chloro-N-{3-cyano-1-[(4-fluorophenyl)methyl]-4,5-dimethyl-1H-pyrrol-2-yl}acetamide] | 91.7835%
6 | CC(Cl)C(=O)NC1CCN(Cc2cscn2)CC1 (stereo not shown) [7-D07, 2-chloro-N-{1-[(1,3-thiazol-4-yl)methyl]piperidin-4-yl}propanamide] | 84.3218%
7 | N#CC(=Cc1cccc([N+](=O)[O-])c1)C(=O)NCc1ccccc1 [8-B22, N-benzyl-2-cyano-3-(3-nitrophenyl)prop-2-enamide] | 88.5792%
8 | C=CCNC(=O)C(C#N)=Cc1cc(F)ccc1F [9-H07, 2-cyano-3-(2,5-difluorophenyl)-N-(prop-2-en-1-yl)prop-2-enamide] | 87.3555%
9 | COc1cc(C(C)NC(=O)CCl)sn1 (stereo not shown) [7-H22, 2-chloro-N-[1-(3-methoxy-1,2-thiazol-5-yl)ethyl]acetamide] | 94.8951%
10 | CC(Cl)C(=O)NC1(C(=O)N(C)C)CC(F)(F)C1 (stereo not shown) [7-K20, 1-(2-chloropropanamido)-3,3-difluoro-N,N-dimethylcyclobutane-1-carboxamide] | 80.3568%
11 | CCC1SC(=C(C#N)C(N)=O)N(c2ccc(C)cc2)C1=O (stereo not shown) [8-J15, 2-cyano-2-[5-ethyl-3-(4-methylphenyl)-4-oxo-1,3-thiazolidin-2-ylidene]acetamide] | 67.6411%
12 | N#CC(=Cc1ccccc1OC(F)F)C(=O)Nc1nccs1 [9-K19, 2-cyano-3-[2-(difluoromethoxy)phenyl]-N-(1,3-thiazol-2-yl)prop-2-enamide] | 89.8029%
13 | CC(NC(=O)CCl)C(=O)N1CCS(=O)(=O)CC1 (stereo not shown) [5-K14, 2-chloro-N-[1-(1,1-dioxo-1lambda6-thiomorpholin-4-yl)-1-oxopropan-2-yl]acetamide] | 88.7675%
14 | N#CC(=Cc1ccc([N+](=O)[O-])o1)C(=O)NCc1ccco1 [8-I17, 2-cyano-N-[(furan-2-yl)methyl]-3-(5-nitrofuran-2-yl)prop-2-enamide] | -0.06798%
15 | C=CC(=O)Nc1cn(CC(F)(F)F)nc1C [3-D06, N-[3-methyl-1-(2,2,2-trifluoroethyl)-1H-pyrazol-4-yl]prop-2-enamide] | 98.4415%
16 | C=CC(=O)N1CCN(Cc2ncon2)CC1 [3-I16, 1-{4-[(1,2,4-oxadiazol-3-yl)methyl]piperazin-1-yl}prop-2-en-1-one] | 91.2075%
17 | COc1ccc(S(=O)(=O)N2CCOCC2)cc1NC(=O)CCl [4-O04, 2-chloro-N-[2-methoxy-5-(morpholine-4-sulfonyl)phenyl]acetamide] | 103.688%
18 | CC(Cl)C(=O)N(C)C(C)c1cccc(NC(=O)c2ccccc2)c1 (stereo not shown) [6-J14, N-{3-[1-(2-chloro-N-methylpropanamido)ethyl]phenyl}benzamide] | 76.5949%
19 | C=CC(=O)N(C)CC(=O)N1CCc2cc(OC)c(OC)cc2C1C (stereo not shown) [3-C04, N-[2-(6,7-dimethoxy-1-methyl-1,2,3,4-tetrahydroisoquinolin-2-yl)-2-oxoethyl]-N-methylprop-2-enamide] | 116.615%
20 | CN(C)CCN1C(=O)C=CC1=O [10-G11, 1-[2-(dimethylamino)ethyl]-2,5-dihydro-1H-pyrrole-2,5-dione] | 99.9026%
21 | C=CC(=O)N1CCCCC1CNC(C)=O (stereo not shown) [2-M07, N-{[1-(prop-2-enoyl)piperidin-2-yl]methyl}acetamide] | 90.0415%
22 | C=CC(=O)N1CCC(C(=O)Nc2nncn2C)(c2ccccc2)CC1 [3-O12, N-(4-methyl-4H-1,2,4-triazol-3-yl)-4-phenyl-1-(prop-2-enoyl)piperidine-4-carboxamide] | 98.0886%

Row | SMILES | % of control remaining
23 | O=C(CCl)NC1CCN(C(=O)CCc2ccccc2)CC1 [6-N08, 2-chloro-N-[1-(3-phenylpropanoyl)piperidin-4-yl]acetamide] | 95.7058%
24 | Cc1ccccc1NC(=O)C(C#N)=Cc1cc2c(cc1[N+](=O)[O-])OCO2 [9-P11, 2-cyano-N-(2-methylphenyl)-3-(6-nitro-1,3-dioxaindan-5-yl)prop-2-enamide] | 84.5003%
25 | N#CC(=Cc1ccc(-c2ccccc2)cc1)C(=O)NCc1ccccc1 [8-C06, N-benzyl-3-{[1,1'-biphenyl]-4-yl}-2-cyanoprop-2-enamide] | 79.1978%
26 | CC(NC(=O)CCl)c1cn(-c2ccccc2)nn1 (stereo not shown) [5-O06, 2-chloro-N-[1-(1-phenyl-1H-1,2,3-triazol-4-yl)ethyl]acetamide] | 103.73%
27 | Cc1cc(CN(C(=O)CCl)c2ccc(F)cc2)nn1C [5-E14, 2-chloro-N-[(1,5-dimethyl-1H-pyrazol-3-yl)methyl]-N-(4-fluorophenyl)acetamide] | 97.6778%
28 | CC(Cl)C(=O)NCC1CCCN(c2nccn3cnnc23)C1 (stereo not shown) [7-M05, 2-chloro-N-[(1-{[1,2,4]triazolo[4,3-a]pyrazin-8-yl}piperidin-3-yl)methyl]propanamide] | 82.868%
29 | CC(C)OC(=O)c1c(NC(=O)CCl)sc2c1CCCC2 [4-E21, propan-2-yl 2-(2-chloroacetamido)-4,5,6,7-tetrahydro-1-benzothiophene-3-carboxylate] | 106.793%
30 | C=CC(=O)NCc1ccc(C(=O)N2CCC(C(C)(C)O)CC2)cc1 [2-J20, N-({4-[4-(2-hydroxypropan-2-yl)piperidine-1-carbonyl]phenyl}methyl)prop-2-enamide] | 92.6662%
31 | CC(C)c1nc(C=C(C#N)C(=O)NC2CCCCC2)c2ccccn12 [9-B15, 2-cyano-N-cyclohexyl-3-[3-(propan-2-yl)imidazo[1,5-a]pyridin-1-yl]prop-2-enamide] | 92.2502%
32 | CC(Cl)C(=O)N1CCn2c(C#N)ccc2C1C (stereo not shown) [6-F22, 2-(2-chloropropanoyl)-1-methyl-1H,2H,3H,4H-pyrrolo[1,2-a]pyrazine-6-carbonitrile] | 96.0091%
33 | C=CC(=O)N(CC)CC(=O)N1CCc2c(ncn2CC)C1 [2-H08, N-ethyl-N-(2-{1-ethyl-1H,4H,5H,6H,7H-imidazo[4,5-c]pyridin-5-yl}-2-oxoethyl)prop-2-enamide] | 93.1294%
34 | Cc1nn(-c2ccccc2)c(Cl)c1C=C(C#N)C(=O)NC(C)C [9-J17, 3-(5-chloro-3-methyl-1-phenyl-1H-pyrazol-4-yl)-2-cyano-N-(propan-2-yl)prop-2-enamide] | 79.8776%
35 | N#CC(=Cc1ccc(OC(F)F)cc1)C(=O)N1CCCc2ccccc21 [8-E03, 3-[4-(difluoromethoxy)phenyl]-2-(1,2,3,4-tetrahydroquinoline-1-carbonyl)prop-2-enenitrile] | 87.6275%
36 | CCOc1cc(C=C(C#N)C(=O)Nc2nccs2)cc(Cl)c1O [9-K22, 3-(3-chloro-5-ethoxy-4-hydroxyphenyl)-2-cyano-N-(1,3-thiazol-2-yl)prop-2-enamide] | 97.5527%
37 | C=CC(=O)Nc1cccc(S(=O)(=O)C2CCOCC2)c1 [3-M08, N-[3-(oxane-4-sulfonyl)phenyl]prop-2-enamide] | 98.265%
38 | COc1ccc(NC(=O)C(C#N)=Cc2cccc(O)c2)cc1Cl [9-C08, N-(3-chloro-4-methoxyphenyl)-2-cyano-3-(3-hydroxyphenyl)prop-2-enamide] | 84.7723%
39 | CC(Cl)C(=O)N1CCN(c2nccc3sccc23)CC1 (stereo not shown) [7-G10, 2-chloro-1-(4-{thieno[3,2-c]pyridin-4-yl}piperazin-1-yl)propan-1-one] | 70.1801%
40 | CC(C)C1C(=O)Nc2ccc(Cl)cc2N1C(=O)CCl (stereo not shown) [5-C11, 6-chloro-4-(2-chloroacetyl)-3-(propan-2-yl)-1,2,3,4-tetrahydroquinoxalin-2-one] | 85.9094%
41 | Cc1cc(C(=O)CCl)c(C)n1Cc1ccccc1 [10-M14, 1-(1-benzyl-2,5-dimethyl-1H-pyrrol-3-yl)-2-chloroethan-1-one] | 109.721%
42 | O=C(CCl)N(Cc1ccsc1)C1CC1 [5-N18, 2-chloro-N-cyclopropyl-N-[(thiophen-3-yl)methyl]acetamide] | 92.4661%
43 | C=CC(=O)N(CC)CC(=O)N1CCCC1c1cn(C)nc1C (stereo not shown) [2-N12, N-{2-[2-(1,3-dimethyl-1H-pyrazol-4-yl)pyrrolidin-1-yl]-2-oxoethyl}-N-ethylprop-2-enamide] | 86.0272%
